Data reported in PMC9600267, “The Antibacterial Type VII Secretion System of Bacillus subtilis: Structure and Interactions of the Pseudokinase YukC/EssB” (mBio, 2022).
Results are given in words; binding and its absence hold for the method and conditions named. Some binding calls cover weakened binding; strength is not graded here. Tags and fused reporters may be left off the sequences shown.

Key:
Assay in all cases: two-hybrid; bacterial two-hybrid (BACTH) in E. coli BTH101; T25 (pKT25/pKNT25) and T18 (pUT18/pUT18C) fusions; spots on LB with X-Gal and IPTG, 25°C, imaged after 48 h
[1] = molecular target: T1, YueB (full length), bacterial two-hybrid fusion (Bacillus subtilis 168) (UniProt O32101)
T1 sequence: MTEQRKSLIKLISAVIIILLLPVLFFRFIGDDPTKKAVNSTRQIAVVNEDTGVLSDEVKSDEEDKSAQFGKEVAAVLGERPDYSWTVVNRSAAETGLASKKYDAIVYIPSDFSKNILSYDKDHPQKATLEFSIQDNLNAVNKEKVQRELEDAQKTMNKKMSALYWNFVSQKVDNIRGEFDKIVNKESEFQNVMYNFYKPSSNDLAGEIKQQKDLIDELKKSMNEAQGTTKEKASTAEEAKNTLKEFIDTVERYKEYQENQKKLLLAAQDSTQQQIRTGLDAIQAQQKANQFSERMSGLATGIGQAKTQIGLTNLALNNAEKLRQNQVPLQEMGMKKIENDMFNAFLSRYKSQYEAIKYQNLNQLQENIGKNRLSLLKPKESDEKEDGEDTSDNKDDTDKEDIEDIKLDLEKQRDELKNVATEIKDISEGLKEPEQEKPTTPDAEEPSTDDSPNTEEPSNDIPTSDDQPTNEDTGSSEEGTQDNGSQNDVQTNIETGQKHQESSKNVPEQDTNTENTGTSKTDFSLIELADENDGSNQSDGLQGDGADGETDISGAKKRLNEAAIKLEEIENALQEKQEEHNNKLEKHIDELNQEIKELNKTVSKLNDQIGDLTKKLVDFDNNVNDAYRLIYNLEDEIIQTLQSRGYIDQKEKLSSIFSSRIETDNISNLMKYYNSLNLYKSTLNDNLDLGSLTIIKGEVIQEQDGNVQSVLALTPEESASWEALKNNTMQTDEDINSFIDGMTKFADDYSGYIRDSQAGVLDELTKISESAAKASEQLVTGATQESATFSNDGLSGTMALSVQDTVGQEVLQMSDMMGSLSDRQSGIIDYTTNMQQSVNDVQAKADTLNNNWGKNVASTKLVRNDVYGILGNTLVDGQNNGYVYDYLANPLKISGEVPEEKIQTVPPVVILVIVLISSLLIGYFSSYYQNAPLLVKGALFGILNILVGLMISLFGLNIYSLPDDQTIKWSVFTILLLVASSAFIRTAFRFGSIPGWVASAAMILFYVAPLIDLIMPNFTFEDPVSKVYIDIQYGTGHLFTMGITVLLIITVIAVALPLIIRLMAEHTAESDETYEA

[2] = molecular target: T2, YukB, bacterial two-hybrid fusion (Bacillus subtilis 168) (UniProt C0SPA7)
T2 sequence: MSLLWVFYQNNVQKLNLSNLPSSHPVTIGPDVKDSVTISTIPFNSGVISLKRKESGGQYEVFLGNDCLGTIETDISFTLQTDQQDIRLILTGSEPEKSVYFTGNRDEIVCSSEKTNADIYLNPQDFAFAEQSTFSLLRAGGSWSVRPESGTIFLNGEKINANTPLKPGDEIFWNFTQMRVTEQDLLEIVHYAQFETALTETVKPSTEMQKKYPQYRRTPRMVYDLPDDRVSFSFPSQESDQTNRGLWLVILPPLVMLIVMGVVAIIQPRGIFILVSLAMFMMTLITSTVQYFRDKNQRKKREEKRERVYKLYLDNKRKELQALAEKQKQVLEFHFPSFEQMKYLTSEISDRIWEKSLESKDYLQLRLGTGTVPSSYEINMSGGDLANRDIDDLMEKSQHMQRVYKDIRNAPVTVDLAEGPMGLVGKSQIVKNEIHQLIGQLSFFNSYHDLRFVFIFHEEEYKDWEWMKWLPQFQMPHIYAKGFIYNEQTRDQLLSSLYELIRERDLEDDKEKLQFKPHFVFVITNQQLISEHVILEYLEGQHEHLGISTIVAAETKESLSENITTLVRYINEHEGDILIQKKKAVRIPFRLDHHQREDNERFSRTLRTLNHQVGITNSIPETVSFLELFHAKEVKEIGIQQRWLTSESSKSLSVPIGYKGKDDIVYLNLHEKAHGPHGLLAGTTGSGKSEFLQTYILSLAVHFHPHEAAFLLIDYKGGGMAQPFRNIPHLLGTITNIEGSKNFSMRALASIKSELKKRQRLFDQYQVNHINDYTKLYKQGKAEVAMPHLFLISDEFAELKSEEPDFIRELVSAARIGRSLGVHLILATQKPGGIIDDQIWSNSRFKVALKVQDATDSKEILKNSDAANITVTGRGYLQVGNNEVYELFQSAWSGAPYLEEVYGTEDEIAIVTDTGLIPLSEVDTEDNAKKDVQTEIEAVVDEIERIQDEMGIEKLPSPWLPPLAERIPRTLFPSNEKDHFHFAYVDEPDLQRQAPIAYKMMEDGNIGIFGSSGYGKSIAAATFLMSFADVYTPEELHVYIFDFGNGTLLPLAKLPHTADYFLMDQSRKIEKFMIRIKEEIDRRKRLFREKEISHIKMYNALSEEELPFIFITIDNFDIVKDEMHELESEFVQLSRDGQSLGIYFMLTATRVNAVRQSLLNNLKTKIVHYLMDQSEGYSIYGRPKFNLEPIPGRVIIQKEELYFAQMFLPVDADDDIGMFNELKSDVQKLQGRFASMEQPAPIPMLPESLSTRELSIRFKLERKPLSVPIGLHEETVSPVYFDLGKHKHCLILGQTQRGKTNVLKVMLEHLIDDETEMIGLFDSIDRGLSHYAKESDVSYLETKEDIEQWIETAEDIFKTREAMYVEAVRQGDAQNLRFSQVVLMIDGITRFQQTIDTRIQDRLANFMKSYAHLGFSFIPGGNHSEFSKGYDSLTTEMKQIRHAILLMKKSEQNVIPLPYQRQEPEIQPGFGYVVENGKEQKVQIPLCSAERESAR

[3] = molecular target: T3, YukE, bacterial two-hybrid fusion (Bacillus subtilis 168) (UniProt C0SP85)
T3 sequence: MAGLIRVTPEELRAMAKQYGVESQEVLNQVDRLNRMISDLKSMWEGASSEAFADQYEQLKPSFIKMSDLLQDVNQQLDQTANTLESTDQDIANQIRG

[4] = molecular target: T4, YueC, bacterial two-hybrid fusion (Bacillus subtilis 168) (UniProt O32100)
T4 sequence: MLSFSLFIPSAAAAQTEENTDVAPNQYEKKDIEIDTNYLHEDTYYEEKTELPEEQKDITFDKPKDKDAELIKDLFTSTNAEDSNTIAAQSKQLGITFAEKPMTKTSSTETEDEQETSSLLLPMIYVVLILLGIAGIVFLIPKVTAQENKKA

B1: YukB, bacterial two-hybrid fusion (protein, UniProt C0SPA7 1-1495)
chain: MSLLWVFYQNNVQKLNLSNLPSSHPVTIGPDVKDSVTISTIPFNSGVISLKRKESGGQYEVFLGNDCLGTIETDISFTLQTDQQDIRLILTGSEPEKSVYFTGNRDEIVCSSEKTNADIYLNPQDFAFAEQSTFSLLRAGGSWSVRPESGTIFLNGEKINANTPLKPGDEIFWNFTQMRVTEQDLLEIVHYAQFETALTETVKPSTEMQKKYPQYRRTPRMVYDLPDDRVSFSFPSQESDQTNRGLWLVILPPLVMLIVMGVVAIIQPRGIFILVSLAMFMMTLITSTVQYFRDKNQRKKREEKRERVYKLYLDNKRKELQALAEKQKQVLEFHFPSFEQMKYLTSEISDRIWEKSLESKDYLQLRLGTGTVPSSYEINMSGGDLANRDIDDLMEKSQHMQRVYKDIRNAPVTVDLAEGPMGLVGKSQIVKNEIHQLIGQLSFFNSYHDLRFVFIFHEEEYKDWEWMKWLPQFQMPHIYAKGFIYNEQTRDQLLSSLYELIRERDLEDDKEKLQFKPHFVFVITNQQLISEHVILEYLEGQHEHLGISTIVAAETKESLSENITTLVRYINEHEGDILIQKKKAVRIPFRLDHHQREDNERFSRTLRTLNHQVGITNSIPETVSFLELFHAKEVKEIGIQQRWLTSESSKSLSVPIGYKGKDDIVYLNLHEKAHGPHGLLAGTTGSGKSEFLQTYILSLAVHFHPHEAAFLLIDYKGGGMAQPFRNIPHLLGTITNIEGSKNFSMRALASIKSELKKRQRLFDQYQVNHINDYTKLYKQGKAEVAMPHLFLISDEFAELKSEEPDFIRELVSAARIGRSLGVHLILATQKPGGIIDDQIWSNSRFKVALKVQDATDSKEILKNSDAANITVTGRGYLQVGNNEVYELFQSAWSGAPYLEEVYGTEDEIAIVTDTGLIPLSEVDTEDNAKKDVQTEIEAVVDEIERIQDEMGIEKLPSPWLPPLAERIPRTLFPSNEKDHFHFAYVDEPDLQRQAPIAYKMMEDGNIGIFGSSGYGKSIAAATFLMSFADVYTPEELHVYIFDFGNGTLLPLAKLPHTADYFLMDQSRKIEKFMIRIKEEIDRRKRLFREKEISHIKMYNALSEEELPFIFITIDNFDIVKDEMHELESEFVQLSRDGQSLGIYFMLTATRVNAVRQSLLNNLKTKIVHYLMDQSEGYSIYGRPKFNLEPIPGRVIIQKEELYFAQMFLPVDADDDIGMFNELKSDVQKLQGRFASMEQPAPIPMLPESLSTRELSIRFKLERKPLSVPIGLHEETVSPVYFDLGKHKHCLILGQTQRGKTNVLKVMLEHLIDDETEMIGLFDSIDRGLSHYAKESDVSYLETKEDIEQWIETAEDIFKTREAMYVEAVRQGDAQNLRFSQVVLMIDGITRFQQTIDTRIQDRLANFMKSYAHLGFSFIPGGNHSEFSKGYDSLTTEMKQIRHAILLMKKSEQNVIPLPYQRQEPEIQPGFGYVVENGKEQKVQIPLCSAERESAR
- binding [1]: binds
- binding [2]: binds

B2: YueB (full length), bacterial two-hybrid fusion (protein, UniProt O32101 1-1076)
chain: MTEQRKSLIKLISAVIIILLLPVLFFRFIGDDPTKKAVNSTRQIAVVNEDTGVLSDEVKSDEEDKSAQFGKEVAAVLGERPDYSWTVVNRSAAETGLASKKYDAIVYIPSDFSKNILSYDKDHPQKATLEFSIQDNLNAVNKEKVQRELEDAQKTMNKKMSALYWNFVSQKVDNIRGEFDKIVNKESEFQNVMYNFYKPSSNDLAGEIKQQKDLIDELKKSMNEAQGTTKEKASTAEEAKNTLKEFIDTVERYKEYQENQKKLLLAAQDSTQQQIRTGLDAIQAQQKANQFSERMSGLATGIGQAKTQIGLTNLALNNAEKLRQNQVPLQEMGMKKIENDMFNAFLSRYKSQYEAIKYQNLNQLQENIGKNRLSLLKPKESDEKEDGEDTSDNKDDTDKEDIEDIKLDLEKQRDELKNVATEIKDISEGLKEPEQEKPTTPDAEEPSTDDSPNTEEPSNDIPTSDDQPTNEDTGSSEEGTQDNGSQNDVQTNIETGQKHQESSKNVPEQDTNTENTGTSKTDFSLIELADENDGSNQSDGLQGDGADGETDISGAKKRLNEAAIKLEEIENALQEKQEEHNNKLEKHIDELNQEIKELNKTVSKLNDQIGDLTKKLVDFDNNVNDAYRLIYNLEDEIIQTLQSRGYIDQKEKLSSIFSSRIETDNISNLMKYYNSLNLYKSTLNDNLDLGSLTIIKGEVIQEQDGNVQSVLALTPEESASWEALKNNTMQTDEDINSFIDGMTKFADDYSGYIRDSQAGVLDELTKISESAAKASEQLVTGATQESATFSNDGLSGTMALSVQDTVGQEVLQMSDMMGSLSDRQSGIIDYTTNMQQSVNDVQAKADTLNNNWGKNVASTKLVRNDVYGILGNTLVDGQNNGYVYDYLANPLKISGEVPEEKIQTVPPVVILVIVLISSLLIGYFSSYYQNAPLLVKGALFGILNILVGLMISLFGLNIYSLPDDQTIKWSVFTILLLVASSAFIRTAFRFGSIPGWVASAAMILFYVAPLIDLIMPNFTFEDPVSKVYIDIQYGTGHLFTMGITVLLIITVIAVALPLIIRLMAEHTAESDETYEA
- binding [1]: binds

B3: YukE, bacterial two-hybrid fusion (protein, UniProt C0SP85 1-97)
chain: MAGLIRVTPEELRAMAKQYGVESQEVLNQVDRLNRMISDLKSMWEGASSEAFADQYEQLKPSFIKMSDLLQDVNQQLDQTANTLESTDQDIANQIRG
- binding [3]: binds

B4: YueC, bacterial two-hybrid fusion (protein, UniProt O32100 1-151)
chain: MLSFSLFIPSAAAAQTEENTDVAPNQYEKKDIEIDTNYLHEDTYYEEKTELPEEQKDITFDKPKDKDAELIKDLFTSTNAEDSNTIAAQSKQLGITFAEKPMTKTSSTETEDEQETSSLLLPMIYVVLILLGIAGIVFLIPKVTAQENKKA
- binding [4]: no binding
